Test systems include HS 578T breast; OVCAR-4 ovarian; MDA-MB-435; IGROV1 ovarian; CAKI-1 renal; TK-10 renal; SN12C renal; M14 melanoma; EKVX NSCLC; SNB-75 CNS; HL-60(TB) leukemia; A498 renal; HT29 colon; HCT-116 colon; PC-3 prostate; CCRF-CEM leukemia.
Common to all, as to assay: growth of human tumour cells (NCI), 48 h

This note sets out measurements from PubChem BioAssay (NCI).

The structures appear in SMILES notation.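 Each compound was tested at five concentrations against cells in 96-well plates for 48 hours. Here, GI50 denotes the concentration required for 50% inhibition of growth.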 Certain results were filed several times, with different values. The list is limited to them. The source may hold further records. For part of these data: The records of an entry repeat one measurement in other runs, samples, wells, individuals or studies. Records carry a tag for their origin. Letters hold for one entry only.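 TGI: total growth inhibition.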 For part of these data: Records of one sample usually come from different ranges of test concentrations, which the source does not state; some values may only mark the edge of a range.

As for `O=C1/C(=C/c2ccccc2F)CNC/C1=C\c1ccccc1F`, the TGI with HS 578T breast is 3.09 µM [sample A, mean of 3 tests] and > 36.2 µM [sample B, mean of 2 tests].

On to `OCC1OC(NCCNCCNC2OC(CO)C(O)C(O)C2O)C(O)C(O)C1O` (stereo not drawn), for which, in the assay on OVCAR-4 ovarian, the GI50 is 1.63 µM [sample A, 1 test] and > 100 µM [sample B, 1 test] and > 100 µM [sample C, 1 test]; the TGI is 3.54 µM [sample A, 1 test] and > 100 µM [sample B, 1 test] and > 100 µM [sample C, 1 test]. For the same molecule, in the assay on MDA-MB-435, the GI50 is 1.72 µM [sample A, 1 test] and > 100 µM [sample B, 1 test]; the TGI is 3.23 µM [sample A, 1 test] and > 100 µM [sample B, 1 test].

In the case of `CCCCCCCCCCC(O)[C@H]1CCC(C2CC[C@H]([C@H](O)CCCCCCCCCCC(O)CC3=CC(C)OC3=O)O2)O1` (stereo partly drawn), the TGI in the assay on IGROV1 ovarian is 3.68 µM and > 100 µM; in the assay with CAKI-1 renal, 5.42 µM and 86.7 µM; in the assay on TK-10 renal, 3.94 µM and 54.2 µM; with SN12C renal, 5.84 µM and > 100 µM; in the assay with M14 melanoma, 3.21 µM and 44.4 µM; with EKVX NSCLC it was 6.41 µM and > 100 µM.

For `Cc1nn(-c2ccccc2)c2c1CC(=O)Nc1ccccc1-2`, the TGI in the assay on SNB-75 CNS was 6.8 µM and 99.4 µM; with HL-60(TB) leukemia, 2.26 µM and 57 nM; with A498 renal, 3.03 µM and 229 nM; with HT29 colon it was 4.54 µM and > 100 µM; with HCT-116 colon, 5.09 µM and > 100 µM; in the assay on PC-3 prostate, 3.11 µM and > 100 µM. The TGI with CCRF-CEM leukemia was 9.65 µM and 702 nM.
